System: pathogenic fungus present in the test tube water
Assay: Resistance of Portulaca to pathogenic fungus in the test tube water
Conditions: treatment for 10 days

## O=C(O)c1ccccn1 [picolinic acid, 2-pyridine carboxylic acid]
  fungal toxin disease resistance: fungal toxin disease resistant

— patent US20090241221A1, “TANDEM REAPEAT DNA CONSTRUCTS PRODUCING PROTEINS THAT ATTACK PLANT PATHOGENIC VIRUSES, FUNGI, AND BACTERIA BY DISRUPTING TRANSCRIPTION FACTORS ESSENTIAL FOR REPLICATION THEREOF IN PLANTS” (priority 2008, published 2009)
